Data from PubChem BioAssay AID488969 (Vanderbilt High Throughput Screening Facility, 2010).
Over roughly 110,000 compounds, “z-score” has its median near -0.1; the highest 2% begin near 2. The list shows a part of the results. Calls of active or inactive are those of the source.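 The calls were made as follows: active = z-score in the third read window above 3 or below -3; inactive = the rest.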

The molecules below were run against Metabotropic glutamate receptor 8 (Rattus norvegicus) (UniProt P70579) (assay: rat mGluR8 modulators via GIRK flux, primary screen, cell-based, thallium flux, HTS (AID 488969)). Details: HEK293 rat mGluR8, GIRK (G protein-gated inwardly rectifying potassium channel) thallium flux, FluoZin2; at 10 µM; stronger effect = higher value; submaximal glutamate (EC20) added with thallium.
UniProt P70579, sequence (P70579 whole entry, looked up): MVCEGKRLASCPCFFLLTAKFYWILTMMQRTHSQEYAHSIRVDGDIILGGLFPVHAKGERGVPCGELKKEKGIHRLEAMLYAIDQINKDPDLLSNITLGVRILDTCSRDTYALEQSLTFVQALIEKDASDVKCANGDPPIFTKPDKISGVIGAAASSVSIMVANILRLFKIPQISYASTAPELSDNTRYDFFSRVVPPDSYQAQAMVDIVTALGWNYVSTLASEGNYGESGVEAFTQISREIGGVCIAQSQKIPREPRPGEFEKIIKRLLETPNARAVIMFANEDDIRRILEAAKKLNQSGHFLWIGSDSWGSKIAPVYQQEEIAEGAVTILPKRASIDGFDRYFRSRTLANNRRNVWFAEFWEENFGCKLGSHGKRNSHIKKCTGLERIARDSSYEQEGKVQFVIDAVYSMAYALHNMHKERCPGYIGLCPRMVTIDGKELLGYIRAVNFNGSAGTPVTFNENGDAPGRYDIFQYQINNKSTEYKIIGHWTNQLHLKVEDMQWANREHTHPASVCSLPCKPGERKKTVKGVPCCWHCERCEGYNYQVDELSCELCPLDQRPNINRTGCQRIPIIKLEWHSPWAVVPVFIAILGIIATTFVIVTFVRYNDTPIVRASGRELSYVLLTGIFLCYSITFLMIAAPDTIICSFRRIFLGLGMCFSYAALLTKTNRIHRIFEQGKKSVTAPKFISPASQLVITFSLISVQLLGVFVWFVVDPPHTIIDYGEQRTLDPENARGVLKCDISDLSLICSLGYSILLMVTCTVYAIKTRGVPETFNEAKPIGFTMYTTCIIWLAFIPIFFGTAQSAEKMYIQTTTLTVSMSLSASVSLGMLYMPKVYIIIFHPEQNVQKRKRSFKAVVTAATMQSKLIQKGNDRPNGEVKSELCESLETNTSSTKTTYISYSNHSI
With `CCC(CC)NC(=O)c1ccc2nc[nH]c2c1` the z-score was -0.0567.
`COc1ccccc1NC(=O)CC(=O)CSc1nnc(-c2ccc(C)cc2)n1-c1ccccc1` was tested, and the z-score was -0.428.
`CC(O)CN=c1cc(-c2ccccc2)oc2ccc(Cl)cc12` (centres undefined) gave a z-score of -0.64.
In the case of `S=C(NCc1cccs1)Nc1ccc(Cl)cc1`, the z-score is reported as 0.118.
Molecule `CC(C)CCC(CC(C)O)c1n[nH]c(=S)n1-c1ccccc1` (centres undefined) has a z-score of -0.206.
`CCOC(=O)c1c(CN(C)C)n(-c2ccc(C)cc2)c2cc(Br)c(O)cc12` showed a z-score of 0.129.
Work on `CCN1C(=O)/C(=c2/s/c(=C3\SC(C)=C(C)N3CC)c(=O)n2CC)N(c2ccccc2)C1=S` yielded a z-score of -0.708.
`CC(=O)Nc1ccc(NC(=O)Cc2sc(C)nc2-c2ccc(C)cc2)cc1` showed a z-score of -0.345.
`O=C(OC(C(=O)NC1CCCC1)c1ccncc1)C1=Cc2ccccc2OC1` (centres undefined) was tested, and the z-score was -1.18.
For `N#Cc1cc(-c2ccccc2)nnc1Sc1ccc(Cl)cc1`, the z-score was -0.0665.
With `FC(F)C(F)(F)C1=CC(c2ccccc2)=NCCN1` the z-score was -0.165.
In the case of `CCNC(=O)Cc1ccc(NS(=O)(=O)c2ccc(F)cc2)cc1`, the z-score is reported as 0.904.
With `CC(C)OCCCNC(=O)c1ccc(CS(=O)(=O)Cc2ccccc2F)o1` the z-score was -0.084.
Molecule `COc1ccc(C2(NC(C)=O)CCN(C(=O)c3cccs3)CC2)cc1` has a z-score of -0.223.
In the case of `CC1CC(C)CN(c2cc3c(cc2[N+](=O)[O-])C(=O)N(c2ccccc2)C3=O)C1` (centres undefined), the z-score is reported as -0.0335.
`O=C1CC(c2cccc(Cl)c2)CC(O)=C1C=NCCCO` (centres undefined) showed a z-score of 0.0972.
In the case of `CC(=O)Nc1cc2c(cc1Br)OCCO2`, the z-score is reported as -0.0593.
With `C/C(=C\C(=O)N1CCc2ccccc21)C(=O)O` the z-score was -0.494.
For `CCOCC(=O)Nc1nc(-c2ccccc2)c(CC)s1`, the z-score was -0.107.
With `CCC(C)NC(=O)/C(=C/c1ccco1)c1ccccc1` (centres undefined) the z-score was -0.109.
`COc1ccc(-c2nnc3ccc(SCC(=O)Nc4nc5ccccc5s4)nn23)cc1OC` showed a z-score of -0.256.
Molecule `COC(=O)c1ccc(CSc2nnc(SCc3ccc(C(=O)OC)o3)s2)o1` has a z-score of -0.48.
`COc1ccc(C(c2nnnn2CS(=O)(=O)c2ccc(C)cc2)N2CCN(c3ncccn3)CC2)cc1` (centres undefined) was tested, and the z-score was -0.362.
`Cc1ccc(CNCC2CCCO2)o1` (centres undefined) showed a z-score of -0.19.
`NC(=O)c1ccc(-n2nnnc2SCC(=O)Nc2ccccc2-c2ccccc2)cc1` gave a z-score of -1.03.
For `CC(CCc1ccccc1)NC(=O)Cc1ccccc1` (centres undefined), the z-score was -0.167.
`C=CCN(CC=C)C(=O)c1ccncc1` was tested, and the z-score was 0.191.
Work on `N/C(CN1CCCC1=O)=N\OC(=O)c1ccccc1Cl` yielded a z-score of -0.018.
`Cc1cc(C)nc(Nc2n[nH]c(-c3cccc4ccccc34)n2)n1` showed a z-score of -0.403.
In the case of `CCOc1ccc(-c2nc(C#N)c(NCC(C)C)o2)cc1`, the z-score is reported as -0.318.
For `O=S(=O)(c1cnccc1N1CCN(/N=C/c2ccc(Br)cc2)CC1)N1CCCCC1`, the z-score was -0.157.
Molecule `CSc1nc2c(c(-c3ccccc3)c1C#N)CCC2` has a z-score of -0.891.
`CCN(C1CCCCC1)S(=O)(=O)c1ccc(S(=O)(=O)N2CCN(CCC#N)CC2)cc1` showed a z-score of -0.359.
Work on `CN1CCN(CCC(=O)N/N=C/c2cc([N+](=O)[O-])ccc2O)CC1` yielded a z-score of -0.0062.
`O=C(COc1ccccc1)Nc1cccc(-c2nc3cc4ccccc4cc3[nH]2)c1` showed a z-score of -0.401.
In the case of `COc1cccc(N2CCN(CC(=O)c3c(C)[nH]c4ccccc34)CC2)c1`, the z-score is reported as -0.161.
`O=C(Nc1ccc2oc(-c3ccccc3Cl)nc2c1)c1ncn[nH]1` showed a z-score of -0.735.
Work on `C=CCn1c(CNC(=O)c2ccco2)nnc1SCC(=O)N1c2ccccc2Sc2ccccc21` yielded a z-score of -0.413.
`CN(C)c1ccc(-c2ccccc2)nn1` gave a z-score of -0.328.
In the case of `CC(C)CCN1CN(S(=O)(=O)c2cccs2)c2nc3ccccc3nc21`, the z-score is reported as -0.0647.
`CCCn1c(SCC(=O)N2CC(=O)Nc3ccccc32)nc2ccccc21` gave a z-score of 0.257.
In the case of `N#Cc1cccc(-n2nnnc2-c2ccccn2)c1`, the z-score is reported as 1.09.
Molecule `CC(C)c1ccccc1NC(=S)NN(Cc1ccccc1)c1ccccc1` has a z-score of -0.164.
Molecule `CC(=O)/C(=C/c1ccc(N(C)C)cc1)C(=O)c1ccccc1` has a z-score of -0.00758.
`COc1cc(C2C(C(C)=O)=C(O)C(=O)N2CCN(C)C)ccc1O` (centres undefined) was tested, and the z-score was 0.309.
Work on `O=C(COc1cccnc1[N+](=O)[O-])NC1CCS(=O)(=O)C1` (centres undefined) yielded a z-score of -0.147.
Work on `Cc1ccccc1NC(=O)Cc1nc(CSc2nnc(-c3ccc4c(c3)OCO4)o2)cs1` yielded a z-score of 0.189.
For `COC(=O)c1[nH]c2cc(OC)ccc2c1NC(=O)CCN1CCCCC1`, the z-score was 0.109.
In the case of `Cc1ccc(-n2c(SCC(=O)Nc3ccc(N4CCOCC4)cc3)nc3ccccc3c2=O)cc1`, the z-score is reported as -0.0731.
In the case of `Cc1ccc(C(=O)NNC(=O)c2cc(OCC(F)(F)F)ccc2OCC(F)(F)F)cc1`, the z-score is reported as 0.0812.
`CC(C)C(NS(=O)(=O)c1cccc2nsnc12)C(=O)Nc1nc2ccc(Cl)cc2s1` (centres undefined) was tested, and the z-score was 0.14.
`COCCn1c(SCc2nc3scc(-c4ccc(Cl)cc4)c3c(=O)[nH]2)nnc1-c1cccc(C)c1` showed a z-score of -0.856.
`C/C(O)=C(/C#N)c1nc2ccccc2[nH]1` gave a z-score of 0.165.
Molecule `Clc1ccccc1-c1nc2ccccc2c2nc3ccccc3n12` has a z-score of -0.316.
Work on `CCCCCCOC(=O)C(C#N)c1nc2ccccc2nc1N1CCN(CC)CC1` (centres undefined) yielded a z-score of 0.709.
`Cc1onc(-c2c(Cl)cccc2Cl)c1C(=O)n1nnc2ccccc21` was tested, and the z-score was -0.18.
`Cc1nc2ncnn2c(C)c1CCC(=O)N1CC(C)CC(C)C1` (centres undefined) gave a z-score of -0.0973.
`CC(C)(C)NC(=O)CCC1COc2ccccc2O1` (centres undefined) showed a z-score of -0.00979.
Work on `CCCCN(C)C(=O)CCC(=O)NNc1nc2ccccc2c2nc(C)nn12` yielded a z-score of -0.0531.
`COc1ccc(NC(=S)Nc2ccc(OCc3ccccc3)cc2)cc1OC` was tested, and the z-score was 0.114.
`O=C(Nc1ccc2c(c1)OCO2)NC1(C(F)(F)F)Oc2ccccc2O1` was tested, and the z-score was 0.348.
In the case of `O=C(CN1CCN(C(=S)NC2CCCC2)CC1)Nc1ccc(Oc2ccccc2)cc1`, the z-score is reported as -0.13.
`O=c1[nH]c(CSc2nc(-c3ccccc3)cs2)nc2ccccc12` gave a z-score of -0.182.
For `COc1ccc(N/N=C(/N=Nc2nc(C)cc(=O)[nH]2)c2ccccc2)cc1`, the z-score was -0.072.
For `O=S(c1ccsc1)c1ccsc1`, the z-score was -0.939.
Work on `CCn1c(SCc2ccc(Cl)cc2)nc2nc3c(cc2c1=O)CCCC3` yielded a z-score of 0.193.
With `CC(C)Cc1ccc(S(=O)(=O)N2CCN(C(=O)c3ccco3)CC2)cc1` the z-score was -0.0515.
Work on `COC(=O)c1cc(-c2ccccc2)sc1N` yielded a z-score of -0.00329.
`COC(=O)c1ccc(N2C(=O)CC(Sc3n[nH]c(C)n3)C2=O)cc1` (centres undefined) was tested, and the z-score was active: 4.88.
In the case of `O=C1CCCN1c1cccc(Br)c1`, the z-score is reported as 1.48.
`COc1ccc(-c2c(N)nnc3c2[nH]c2ccccc23)cc1OC` gave a z-score of 0.093.
For `O=C1N=C(N2CCN(c3ccccc3)CC2)SC1Cc1ccccc1` (centres undefined), the z-score was -0.845.
For `Cc1cc(C)c(S(=O)(=O)NCCCN2CCOCC2)cc1Br`, the z-score was -0.0584.
`Cc1nn(Cc2c(Cl)cccc2Cl)c(C)c1NC(=O)c1sc2ccccc2c1Cl` was tested, and the z-score was -0.0715.
In the case of `Cc1cc(=O)[nH]c(N2CCc3ccccc3C2)n1`, the z-score is reported as -0.185.
Molecule `Cc1ccc(NC(=O)c2cc(NC(=O)C3CC=CCC3C(=O)O)ccc2N2CCOCC2)cc1Cl` (centres undefined) has a z-score of 0.251.
With `CCONC(=O)Nc1ccccc1[N+](=O)[O-]` the z-score was -0.32.
With `CCN(CC)c1ccc(/C=C2\C(=O)N(c3ccc([N+](=O)[O-])cc3)N=C2N2CCOCC2)cc1` the z-score was -0.155.
`CC1CCCN(c2nc3c(c(=O)[nH]c(=O)n3C)n2CCSc2nc3ccccc3o2)C1` (centres undefined) gave a z-score of -0.549.
In the case of `ClC(=C\c1ccccc1)/C=N/N1CCN(c2ccccn2)CC1`, the z-score is reported as -0.0893.
`O=c1c2[nH]c3ccccc3c2ncn1Cc1ccco1` showed a z-score of -0.0473.
`Nc1c(S(=O)(=O)c2cccc(Cl)c2)c2nc3ccccc3nc2n1/N=C/c1ccc(O)c(O)c1` was tested, and the z-score was 0.831.
In the case of `COc1cc2c(C(=O)N3CCN(c4ccccc4C)CC3)c(C)oc2cc1Br`, the z-score is reported as -0.461.
Molecule `COC(=O)c1cc(NS(=O)(=O)c2ccc(N3CCC(C)CC3)c([N+](=O)[O-])c2)cc(C(=O)OC)c1` has a z-score of -0.235.
`O=C(Nc1cccn(Cc2c(Cl)cccc2Cl)c1=O)c1ccc(Cl)cc1` showed a z-score of 0.349.
For `CCn1c(=O)cc(OCC(=O)N2CCCCCC2)c2ccccc21`, the z-score was -0.224.
`Cc1ccccc1C(=O)N1CCC(C(=O)Nc2ccc(S(=O)(=O)N(C)C(C)C)cc2)CC1` was tested, and the z-score was -0.824.
`Cc1cc(C(F)(F)F)nn1CC(=O)NNC(=S)Nc1ccc(Cl)cc1` was tested, and the z-score was 0.0912.
With `CCOC(=O)C(NCCc1ccc(F)cc1)(NC(=O)CC)C(F)(F)F` (centres undefined) the z-score was -0.413.
Work on `CC12CCC(O)CC1=CCC1C2CCC2(C)C1CCC21CCC(=O)O1` (centres undefined) yielded a z-score of 0.184.
In the case of `COc1cc(NC(=O)CCC(=O)O)nc(OC)n1`, the z-score is reported as -0.0824.
Molecule `Cc1ccc2c(c1)NC(=O)C(CC(=O)N(C)Cc1ccccc1)O2` (centres undefined) has a z-score of -0.422.
`Oc1ccc(Br)cc1-c1nc2cnccn2c1NC1CCCCC1` was tested, and the z-score was -0.22.
For `O=C(Cc1ccccc1)N/N=C/c1ccc(-c2ccc([N+](=O)[O-])cc2)o1`, the z-score was -0.441.
Molecule `N#C/C(=C/c1cccc([N+](=O)[O-])c1)c1nnc2n1CCCCC2` has a z-score of -0.295.
In the case of `COc1ccc(NC(=O)c2ccc(C#CC(C)(C)O)cc2)cc1`, the z-score is reported as -0.245.
For `O=[N+]([O-])C1=CC=C2C(=NC3(CCCCC3)N2O)C1=NC1CCCCC1`, the z-score was 0.018.
In the case of `COc1cccc(NC(=O)N(CCCN2CCOCC2)C(C)c2cc3ccccc3o2)c1` (centres undefined), the z-score is reported as -2.21.
For `CCOC(=O)C1=C(c2ccccc2)OC(N)=C(C#N)C1c1cccs1` (centres undefined), the z-score was 0.288.
For `COc1ccc(C(=O)Nc2cc3c(cc2C#N)OCO3)cc1S(=O)(=O)N1CCN(C)CC1`, the z-score was 1.02.
With `COc1ccc(Cc2nc3ccccc3n2CC(=O)N/N=C/c2ccc(C)cc2O)cc1OC` the z-score was -0.275.
With `CCCS(=O)(=O)N1CCC(C(=O)NC2CCCC(C)C2C)CC1` (centres undefined) the z-score was 0.495.
Work on `CCn1c(SCc2nc3ccccc3[nH]2)nnc1-c1ccc(OC)cc1` yielded a z-score of -0.231.
For `COc1ccccc1C(c1nnnn1CCc1ccccc1)N1CCCCCC1` (centres undefined), the z-score was 2.68.
For `Cc1nn(C)c(C)c1CNC(=O)c1nn2c(c1Cl)NC(c1cccs1)CC2C(F)(F)F` (centres undefined), the z-score was -0.0188.
`CCCC(=O)Nc1sc2c(c1C#N)CCCCC2` showed a z-score of 0.209.
In the case of `CCCCNC(=O)C1C2C=CC3(CN(Cc4ccccc4Cl)C(=O)C13)O2` (centres undefined), the z-score is reported as 1.61.
In the case of `COc1ccc(S(=O)(=O)Nc2ccc(S(=O)(=O)N3CCOCC3)cc2)cc1C`, the z-score is reported as -0.769.
`Cc1c(S(=O)(=O)N2CCc3ccccc3C2)c(=O)n(C)c(=O)n1C` showed a z-score of -0.104.
